Measured values reported in the antibiotic and cytotoxicity screens of Wong et al. (2023).
Some of the results follow.

Each compound was assayed on S. aureus RN4220 (assay: growth inhibition call (relative growth <= 0.2)). Conditions: 50 µM.

Growth inhibition call, inactive:
Cc1ccc(S(=O)(=O)N(C)C[C@@H]2Oc3ncc(-c4ccncc4)cc3C(=O)N([C@H](C)CO)C[C@H]2C)cc1, C[C@H]1CN([C@@H](C)CO)C(=O)Cc2cc(NC(=O)CCN3CCOCC3)ccc2O[C@@H]1CN(C)S(=O)(=O)c1cn(C)cn1, COc1ccc(NC(=O)N(C)C[C@@H]2Oc3c(NC(=O)c4ccc(-c5nccs5)cc4)cccc3C(=O)N([C@@H](C)CO)C[C@@H]2C)cc1, C[C@@H]1CN([C@H](C)CO)C(=O)c2cc(NS(=O)(=O)c3ccc(Cl)cc3)ccc2O[C@@H](C)CCCCO[C@H]1CN(C)C(=O)Nc1ccccc1
